The values that follow come from ChEMBL document CHEMBL4888484, “Replenishing the malaria drug discovery pipeline: Screening and hit evaluation of the MMV Hit Generation Library 1 (HGL1) against asexual blood stage Plasmodium falciparum ,using a nano luciferase reporter read-out” (2022).

Out of some 150,000 compounds screened, about 540 (0.36%) showed an effect of 50% or more. This is one part of the list.

The test system of the assay is Plasmodium falciparum. The assay is described as follows: Primary screen in NF54 nanoGlo assay, in single point, at 2uM, 72h; a lower Z score goes with more inhibition. It counts as functional, Erythrocyte. To be noted: timepoint 72 hour.
In the case of `O[C@H]1CCN(Cc2csc3c2CCCC3)C1`, the “% Inhibition” value was -5% and the Z score is given as 0.98.
Turning to `Cn1nnc2c(N3CC4CCC(NC(=O)C(C)(F)F)CC4C3)ncnc21` (stereo not drawn), the “% Inhibition” value came out at 3% and the Z score is -0.64.
For the compound `Cc1nsc(C(=O)NCCCN2CCOCC2)n1`, the “% Inhibition” value was -11% and the Z score amounted to 1.65.
The matching figures for `Cc1nn(C)c2ncnc(N3CCCN(CC(C)C)CC3)c12`: -10% and 1.81.
Regarding `CC(NCC1CCN(C2CC2)C1)c1ccccc1N(C)C` (stereo not drawn), the “% Inhibition” value came out at 5% and the Z score was -0.89.
`CC[C@H](NCc1ccc(Br)o1)c1noc(C)n1`: the “% Inhibition” value is -11% and the Z score is reported as 1.17.
The matching figures for `Cc1ccc2c(Nc3ccc(C)c(Cl)c3)c(C(=O)N3CCCCC3)cnc2n1`: -3% and 0.46.
For the compound `COc1ccccc1C[C@H](C)N1CCC(CCC(=O)NC2CC2)CC1`, the “% Inhibition” value is recorded as -12% and the Z score is recorded as 1.11.
`O=C1CCC2(CCN(c3cnc4ccccc4n3)CC2)CN1Cc1cccnc1`: the “% Inhibition” value is 5% and the Z score is -0.69.
Consider `O=C(NCCc1ccsc1)N[C@H]1CCOC2(CCOCC2)C1`, for which the “% Inhibition” value is reported as 2% and the Z score is -0.31.
For the compound `O=C(Nc1nnnn1C1CC1)[C@H]1CCCO1`, the “% Inhibition” value is -4% and the Z score was 0.44.
`CCc1cccc(NC(=O)c2ncn3c2C(=O)N(C2CC2)[C@](C)(C(=O)NCc2ccc(F)cc2)C3)c1`: the “% Inhibition” value is reported as -14% and the Z score was 1.37.
As for `O=C(NCC1CC1)[C@]1(F)CCCN(Cc2ccc3[nH]ccc3c2)C1`, the “% Inhibition” value is given as -17% and the Z score is 1.47.
On to `C[C@H](Nc1ncc(Cl)cn1)C(=O)NC1CCCC1`, for which the “% Inhibition” value is listed as -2% and the Z score is 0.35.
With `CC(C)n1ccnc1-c1cc(O)cc(CC[C@H]2CCCCN2)c1`, the “% Inhibition” value was -1% and the Z score is listed as 0.08.
The matching figures for `COC(=O)c1ccc(C)c(NC(=O)c2cc(C)n(C)c2C)c1`: -10% and 1.05.
As for `CCN(C)C(=O)C1CN(C(=O)NC(C)(C)C)CC1c1cc(OC)c(OC)c(OC)c1` (stereo not drawn), the “% Inhibition” value is on record as -9% and the Z score is 1.
For the compound `COc1ccc(-n2ccnc(NC(=O)c3cccc(F)c3)c2=O)cc1`, the “% Inhibition” value turned out to be 3% and the Z score is -0.39.
With `N#Cc1c(F)cccc1NCC(F)(F)CN`, the “% Inhibition” value is -7% and the Z score is 1.19.
Take `O=C(Nc1nc(-c2ccc3c(c2)OCCO3)cs1)c1ccc(Cl)s1`: the “% Inhibition” value was -8% and the Z score was 1.55.
For `COCCN(CC1CN(Cc2ccsc2)CC1c1cccc(F)c1)C(=O)C(C)C` (stereo not drawn), the “% Inhibition” value was found to be 30% and the Z score was -0.45.
As for `COCC(=O)N1CCC2(CCC(=O)N(CC3CC3)CC2)CC1`, the “% Inhibition” value was -13% and the Z score was found to be 1.51.
Regarding `CS(=O)(=O)c1ccc(Cl)c(S(=O)(=O)N2CC(N3CCNC3=O)C2)c1`, the “% Inhibition” value was -4% and the Z score worked out at 0.72.
The matching figures for `Cc1ccc(OC2CCN(C(=O)c3cn(C4CCNCC4)nn3)CC2)cc1C`: -6% and 1.1.

The term % Inhibition denotes the drop in the measured response relative to a control, in per cent.
